From patent US20250026846A1 (JCR PHARMACEUTICALS, published 2025)
Positions count from the first letter of the chain named. Names may count otherwise. Read-outs that look alike come from different tables or passages of the source.

T1: recombinant monkey TfR (r monkey TfR: Sino Biological Inc.), crab-eating monkey TfR extracellular region with … (crab-eating monkey (Macaca fascicularis))
T1 construct: Bought from Sino Biological; also called r monkey TfR-ECD (Histag); not shown: histidine tag at the N-terminus
T1 chain: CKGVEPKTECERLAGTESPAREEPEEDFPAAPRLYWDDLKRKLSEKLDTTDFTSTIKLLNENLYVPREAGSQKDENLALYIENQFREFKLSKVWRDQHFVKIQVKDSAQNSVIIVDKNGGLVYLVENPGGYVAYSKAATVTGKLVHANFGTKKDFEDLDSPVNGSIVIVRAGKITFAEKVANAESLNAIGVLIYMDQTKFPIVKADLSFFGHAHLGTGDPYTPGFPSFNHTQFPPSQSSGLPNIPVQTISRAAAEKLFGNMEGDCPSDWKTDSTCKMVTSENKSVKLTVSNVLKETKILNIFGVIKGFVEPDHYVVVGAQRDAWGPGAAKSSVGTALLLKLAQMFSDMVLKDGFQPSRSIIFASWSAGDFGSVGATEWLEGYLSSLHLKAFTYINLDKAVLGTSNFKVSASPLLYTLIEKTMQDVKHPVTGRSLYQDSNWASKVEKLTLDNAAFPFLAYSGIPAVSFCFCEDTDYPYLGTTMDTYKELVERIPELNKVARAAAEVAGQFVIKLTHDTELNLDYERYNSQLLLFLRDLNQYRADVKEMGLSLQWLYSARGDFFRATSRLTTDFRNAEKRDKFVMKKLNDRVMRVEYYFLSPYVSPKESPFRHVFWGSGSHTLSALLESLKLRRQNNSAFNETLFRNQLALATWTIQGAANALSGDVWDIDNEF

B1: Fc-Fab (3N): human IgG Fc region-added Fab of humanized anti-hTfR antibody 3N (Fc fusion)
light: DIVMTQTPLSLSVTPGQPASISCRSSQSLVHSNGNTYLHWYLQKPGQSPQLLIYKVSNRFSGVPDRFSGSGSGTDFTLKISRVEAEDVGVYYCSQSTHVPWTFGQGTKVEIKRTVAAPSVFIFPPSDEQLKSGTASVVCLLNNFYPREAKVQWKVDNALQSGNSQESVTEQDSKDSTYSLSSTLTLSKADYEKHKVYACEVTHQGLSSPVTKSFNRGEC
heavy: [sequence of human IgG1 Fc omitted]GGGGSGGGGSGGGGSGGGGSGGGGSEVQLVQSGAEVKKPGESLKISCKGSGYSFMNYWLGWVRQMPGKGLEWMGDIYPGGDYPTYSEKFKVQVTISADKSISTAYLQLSSLKASDTAMYYCARSGNYDEVAYWGQGTLVTVSSASTKGPSVFPLAPSSKSTSGGTAALGCLVKDYFPEPVTVSWNSGALTSGVHTFPAVLQSSGLYSLSSVVTVPSSSLGTQTYICNVNHKPSNTKVDKKVEPKSCDKTHT
notes: The light chain comes from pE-hygr(LC3); also called hFc-humanized anti-hTfR antibody
B2: I2S-anti-hTfR antibody 3 (fusion protein of hI2S and humanized anti-hTfR antibody No. 3) (other)
light: B1 light
heavy: EVQLVQSGAEVKKPGESLKISCKGSGYSFTNYWLGWVRQMPGKGLEWMGDIYPGGDYPTYSEKFKVQVTISADKSISTAYLQWSSLKASDTAMYYCARSGNYDEVAYWGQGTLVTVSS[sequence of human IgG1 constant region omitted]GSSETQANSTTDALNVLLIIVDDLRPSLGCYGDKLVRSPNIDQLASHSLLFQNAFAQQAVCAPSRVSFLTGRRPDTTRLYDFNSYWRVHAGNFSTIPQYFKENGYVTMSVGKVFHPGISSNHTDDSPYSWSFPPYHPSSEKYENTKTCRGPDGELHANLLCPVDVLDVPEGTLPDKQSTEQAIQLLEKMKTSASPFFLAVGYHKPHIPFRYPKEFQKLYPLENITLAPDPEVPDGLPPVAYNPWMDIRQREDVQALNISVPYGPIPVDFQRKIRQSYFASVSYLDTQVGRLLSALDDLQLANSTIIAFTSDHGWALGEHGEWAKYSNFDVATHVPLIFYVPGRTASLPEAGEKLFPYLDPFDSASQLMEPGRQSMDLVELVSLFPTLAGLAGLQVPPRCPVPSFHVELCREGKNLLKHFRFRDLEEDPYLPGNPRELIAYSQYPRPSDIPQWNSDKPSLKDIKIMGYSIRTIDYRYTVWVGFNPDEFLANFSDIHAGELYFVDSDPLQDHNMYNDSQGGDLFQLLMP
B3: I2S-anti-hTfR antibody 3N (fusion protein of hI2S and humanized anti-hTfR antibody No. 3N) (other)
light: B1 light
heavy: B2 heavy with T30M, W83L

Tests used:
[1] = molecular target: T2, recombinant human TfR (r human TfR: Sino Biological Inc.), hTfR extracellular region with a histidine tag at … (human, UniProt P02786); assay: BLI (Octet RED96), His-tagged TfR ECD on Ni-NTA sensor
T2 construct: Bought from Sino Biological; also called r human TfR-ECD (Histag); recombinant hTfR; not shown: histidine tag at the N-terminus
Method: (§1) Each of the sample solutions prepared above by 2-fold dilution steps was added, 200 μL/well, to a 96-well plate, black (Greiner Bio-One Inc.). Each of the r human TfR-ECD (Histag) solution and the r monkey TfR-ECD (Histag) solutions prepared above was added, 200 μL/well, to predetermined wells. To respective wells for baseline, dissociation and washing were added HBS-P+, 200 μL/well. To wells for regeneration were added 10 mM Glycine-HCl (pH 1.7), 200 μL/well. To wells for activation was added 0.5 mM NiCl₂ solution, 200 μL/well. The plate and biosensor (Biosensor/Ni-NTA: ForteBio Inc., a division of Pall Corporation) were set in the prescribed positions of Octet RED96.
(§2) The measurement was performed at 25 to 30° C.
(§3) The affinity of the purified product of Fc-Fab (3N) obtained in Example 20-3 to human TfR and monkey TfR was measured by the method described in Example 7.

[2] = molecular target: T1, recombinant monkey TfR (r monkey TfR: …); assay: as above
Method: as §1, §2, §3

[3] = molecular target: T2, recombinant human TfR (r human TfR: …); assay: as above; remark: listed apart in the source
Method: as §1, §2
(§4) The affinity of the I2S-anti-hTfR antibodies obtained in Example 22 to human TfR and monkey TfR was measured in accordance with the method described in Example 7.

[4] = molecular target: T1, recombinant monkey TfR (r monkey TfR: …); assay: as above
Method: as §1, §2, §4

[5] = molecular target: T2, recombinant human TfR (r human TfR: …); assay: BLI (Octet RED96)

Binder	Kd [1] [nM]	koff [1] [s⁻¹]	kon [1] [M⁻¹ s⁻¹]	Kd [2] [nM]	koff [2] [s⁻¹]	kon [2] [M⁻¹ s⁻¹]	Kd [3] [nM]	koff [3] [s⁻¹]	kon [3] [M⁻¹ s⁻¹]	Kd [4] [nM]	koff [4] [s⁻¹]	kon [4] [M⁻¹ s⁻¹]	fold affinity against I2S-anti-hTfR antibody 3 [5] [fold]
B1	< 0.001	< 1e-07	667000	0.861	0.000209	243000	–	–	–	–	–	–	–
B2	–	–	–	–	–	–	0.126	0.000104	829000	1.09	0.00041	377000	–
B3	–	–	–	–	–	–	0.0275	1.9e-05	692000	< 0.001	< 1e-07	383000	~5
